From PubChem BioAssay AID1476 (National Center for Advancing Translational Sciences (NCATS), 2009)
Out of some 200,000 compounds screened, about 4,500 (2.2%) were called active. This list was built around the results that the source calls inconclusive (neither active nor inactive); the mix of calls is not that of the screen. Calls come from the whole dose curve; as a rule, active = well fitted inhibition curve with a large enough effect; inconclusive = small, poorly fitted or top-dose-only effect, or effect the other way; inactive = flat fitted curve, though single readings scatter. A potency beside an inconclusive call is a rough fit, not a confirmed value.

These molecules were tested against Cruzipain (Trypanosoma cruzi) (UniProt P25779) (assay: qHTS Assay for Promiscuous and Specific Inhibitors of Cruzain (without detergent)). Settings: purified cruzain, Z-FR-AMC fluorescence, no detergent.
UniProt P25779, sequence (P25779 whole entry, looked up): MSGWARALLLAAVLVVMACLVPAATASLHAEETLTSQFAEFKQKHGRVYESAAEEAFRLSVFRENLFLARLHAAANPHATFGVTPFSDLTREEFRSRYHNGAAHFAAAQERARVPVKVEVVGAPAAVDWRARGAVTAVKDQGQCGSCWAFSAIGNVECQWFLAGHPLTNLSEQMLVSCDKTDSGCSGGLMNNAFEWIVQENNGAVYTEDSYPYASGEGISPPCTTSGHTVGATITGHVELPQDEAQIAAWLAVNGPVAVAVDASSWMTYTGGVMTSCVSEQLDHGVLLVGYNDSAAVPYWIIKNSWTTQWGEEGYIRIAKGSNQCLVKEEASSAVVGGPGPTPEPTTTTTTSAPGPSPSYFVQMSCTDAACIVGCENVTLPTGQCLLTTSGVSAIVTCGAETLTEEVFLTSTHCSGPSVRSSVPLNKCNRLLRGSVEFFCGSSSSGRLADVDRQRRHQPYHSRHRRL
In short: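 Purified cruzain at 1.5 nM, pre-incubated 15 min with compound at room temperature in 100 mM sodium acetate pH 5.5, 5 mM DTT, 0.00005% Triton X-100. Reaction started with 2 uM Z-FR-AMC; AMC fluorescence increase over 60 s gives rate.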
Note: nearly all actives have a fitted effect of over 40% in size.
Potency is the fitted concentration of half-maximal effect; tags give direction and shape of the fitted curve.
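Throughout, for max response, negative = inhibition: plate controls were enzyme without inhibitor for no effect and buffer without enzyme for full effect.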

For `CN(C)c1ccc(C(=S)N2CCN(c3ccccc3)CC2)cc1`, which max response, negative = inhibition is on record?
The max response, negative = inhibition was inactive: -2.96%.

How did the max response, negative = inhibition turn out when `O=C(O)c1ccc(CNCc2ccccc2)cc1` was run?
Its max response, negative = inhibition is inactive: 2.69%.

With `COC(=O)c1ccc(C2C(C(=O)OC(C)C)=C(C)N=C3SCCC(=O)N32)cc1` (configuration not stated) as the molecule, how does the Potency read?
Its Potency is inconclusive: 39.8 µM [activator, single point].

With `Cc1ccccc1NCc1nc2ccccc2n1CCOc1ccccc1` as the molecule, how does the max response, negative = inhibition read?
Its max response, negative = inhibition is inactive: -13.8%.

For `COc1ccc(-n2c3c(cc(-c4nc(-c5ccc(Cl)cc5)cs4)c2=O)C(=O)CC(C)(C)C3)cc1Cl`, which max response, negative = inhibition is on record?
Its max response, negative = inhibition is inactive: 10.5%.

For `Cc1cccc(OCCCn2c(CCNC(=O)C(C)C)nc3ccccc32)c1`, which max response, negative = inhibition is on record?
The max response, negative = inhibition was inactive: 15.6%.

How did the max response, negative = inhibition turn out when `COc1cc2ccccc2cc1C(=O)Nc1ccc2oc(-c3cccc(C)c3)nc2c1` was run?
The max response, negative = inhibition was inactive: -3.97%.

`CCOC(=O)C1=C(C)N=C2SC(C)C(=O)N2C1c1cccc(F)c1` (configuration not stated) was tested. Which Potency did it give?
Its Potency is inconclusive: 39.8 µM [inhibitor, single point].

How did the max response, negative = inhibition turn out when `O=S(=O)(c1ccccc1)c1nc(-c2ccccc2F)oc1N1CCOCC1` was run?
The max response, negative = inhibition was inactive: -0.349%.

For `Cn1cccc1/C=N/NC(=O)c1sc2cc(Cl)ccc2c1Cl`, which Potency is on record?
Its Potency is inconclusive: 39.8 µM [inhibitor, single point].

With `COC(=O)c1[nH]c2c(c1C)C(=O)CC(c1ccccc1)C2` (configuration not stated) as the molecule, how does the Potency read?
The Potency was inconclusive: 39.8 µM [inhibitor, single point].

How did the max response, negative = inhibition turn out when `COc1ccc(OCc2cccc(C(=O)N3CCCC3)c2)cc1` was run?
Its max response, negative = inhibition is inactive: 22.1%.

With `CC(C)NC(=O)c1c(O)c2ccccc2[nH]c1=O` as the molecule, how does the Potency read?
The Potency was inconclusive: 25.1 µM [inhibitor, single point].

With `CC[C@@H]1C(c2cccc(Cl)c2)=NN(c2ccc(Br)cc2)[C@H]1C(=O)N1CCOC1=O` as the molecule, how does the Potency read?
Its Potency is inconclusive: 35.5 µM [inhibitor, single point].

Which max response, negative = inhibition does the source give for `O=C(NCCN1C(=O)S/C(=C\c2ccc(F)cc2)C1=O)C1CCN(S(=O)(=O)c2cccs2)CC1` here?
The max response, negative = inhibition was inactive: 2.65%.

With `Cc1ccc(NC(=O)Cn2c(=O)n(Cc3ccccc3)c(=O)c3c2c2cc(C)ccc2n3C)cc1` as the molecule, how does the max response, negative = inhibition read?
Its max response, negative = inhibition is inactive: -7.2%.

Which max response, negative = inhibition does the source give for `CC(=O)Nc1cccc(-c2cn3cccnc3n2)c1` here?
The max response, negative = inhibition was inactive: -14.1%.

How did the Potency turn out when `CCOC(=O)N1CCN(C(=O)Cn2ncc3c4ccccc4n(Cc4ccc(F)cc4)c3c2=O)CC1` was run?
Its Potency is inconclusive: 39.8 µM [activator, single point].

How did the Potency turn out when `Cc1noc(C)c1S(=O)(=O)NCCc1csc2nc(-c3ccc(Cl)cc3)nn12` was run?
The Potency was inconclusive: 31.6 µM [activator, single point].

Which Potency does the source give for `COc1ccccc1-c1nnc(C2CCN(S(=O)(=O)c3ccc(F)c(C)c3)CC2)o1` here?
The Potency was inconclusive: 25.1 µM [activator, single point].

`Cc1[nH]n(-c2ccc([N+](=O)[O-])cc2)c(=O)c1C=NCCN1CCN(C(=O)c2ccccc2F)CC1` was tested. Which Potency did it give?
Its Potency is inconclusive: 25.1 µM [activator, single point].

With `CCOc1ccccc1NC(=O)CSC1=C(C#N)C(c2ccco2)C(C(=O)Nc2nc3ccccc3s2)=C(C)N1` (configuration not stated) as the molecule, how does the Potency read?
The Potency was active: 7.94 µM.

`COc1cccc(C2C3=C(N=c4s/c(=C\c5cccc(O)c5)c(=O)n42)c2ccccc2CC3)c1OC` (configuration not stated) was tested. Which Potency did it give?
Its Potency is active: 10 µM.

`COc1cccc(Nc2c3c(nc4c(-c5ccccc5)c(C)nn24)CCC3)c1` was tested. Which Potency did it give?
Its Potency is inconclusive: 39.8 µM [inhibitor, single point].

`Cc1nn(-c2ccccc2)c2sc(C(=O)Nc3cccc(Br)c3)cc12` was tested. Which Potency did it give?
The Potency was active: 20 µM.

How did the Potency turn out when `Cc1ccc(NC(=O)c2cc(S(=O)(=O)N3CCCCC3)c[nH]2)cc1F` was run?
The Potency was inconclusive: 25.1 µM [inhibitor, single point].

With `COC(=O)c1cc(OC)c(OC)cc1NC(=O)C1CCC(=O)N1S(=O)(=O)c1ccc(C)cc1` (configuration not stated) as the molecule, how does the Potency read?
The Potency was inconclusive: 6.31 µM [activator, single point].

How did the Potency turn out when `COC(=O)c1scc(C)c1N/N=C(\C)c1cc(F)c(Cl)cc1F` was run?
The Potency was inconclusive: 2.51 µM [inhibitor, single point].

With `COc1ccccc1N1CCN(C(=O)c2cc3c(=O)oc4ccccc4c3s2)CC1` as the molecule, how does the max response, negative = inhibition read?
Its max response, negative = inhibition is inactive: 4.09%.

For `CC[C@H](C)C(=O)O[C@H]1CCC=C2C=C[C@H](C)[C@H](CC[C@@H]3C[C@H](O)CC(=O)O3)C21` (some centres not stated), which Potency is on record?
Its Potency is inconclusive: 15.8 µM [activator, partial curve].

For `O=C(c1cccc(F)c1)N1CCC2(CC1)CCN(c1ccccn1)CC2`, which max response, negative = inhibition is on record?
The max response, negative = inhibition was inactive: -4.78%.

How did the Potency turn out when `CCCNC(=O)OC[C@H]1O[C@H](CCO/N=C/[C@@H](NS(=O)(=O)c2ccc(C)cc2)[C@H](C)/C=C/CC(=O)OC)C=C[C@@H]1Oc1ccc(OC)cc1` was run?
The Potency was inconclusive: 25.1 µM [activator, partial curve].

Which Potency does the source give for `CN(C)CC(=O)c1ccc(-c2ccccc2)cc1` here?
Its Potency is inconclusive: 25.1 µM [inhibitor, single point].

How did the Potency turn out when `COc1ccc(N2C(=O)CC(N(CCc3ccc(OC)c(OC)c3)C(=S)Nc3ccccc3)C2=O)cc1` (configuration not stated) was run?
The Potency was inconclusive: 31.6 µM [activator, single point].

Which Potency does the source give for `Cc1ccc(-c2cc(C(=O)NC3=NCCS3)c3cc(Br)ccc3n2)o1` here?
Its Potency is inconclusive: 39.8 µM [activator, single point].

With `Cc1ccc(-c2cc(C(F)(F)F)n3ncc(-c4ccc(Cl)cc4)c3n2)cc1` as the molecule, how does the max response, negative = inhibition read?
Its max response, negative = inhibition is inactive: 2.3%.

Which Potency does the source give for `CCOC(=O)C1CCN(C(=O)c2ccc3c(c2)N=C(CC)c2cc(C)ccc2S3)CC1` here?
Its Potency is inconclusive: 39.8 µM [activator, single point].

How did the max response, negative = inhibition turn out when `CCCCn1c(=O)nc2n(-c3ccc(F)cc3)c3ccccc3cc-2c1=O` was run?
The max response, negative = inhibition was inactive: 2.58%.

For `COC(=O)c1sccc1NC(=O)Nc1ccc(Cl)c(Cl)c1`, which Potency is on record?
The Potency was inconclusive: 39.8 µM [inhibitor, single point].

How did the Potency turn out when `CC(Sc1nc2c([nH]c3ccccc32)c(=O)n1-c1ccccc1)c1ccccc1` (configuration not stated) was run?
The Potency was active: 7.94 µM.

With `COc1ccc(OC)c(NC(=O)c2c(C)oc3ncnc(N4CCOCC4)c23)c1` as the molecule, how does the Potency read?
The Potency was inconclusive: 39.8 µM [activator, single point].

Which Potency does the source give for `Cc1ccc(C(=O)NCC(=O)OCC(=O)Nc2ccc(Cl)cc2C(F)(F)F)cc1C` here?
The Potency was inconclusive: 10 µM [inhibitor, partial curve, poor fit].

How did the Potency turn out when `COc1cc2c(cc1OC)CN(c1nc(CN3CCOCC3)nc3sc4c(c13)CCC(C)C4)CC2` (configuration not stated) was run?
The Potency was inconclusive: 20 µM [activator, single point].

For `C=CCn1c(COc2ccc(CC)cc2)nnc1SCC(=O)N(C)C1CCS(=O)(=O)C1` (configuration not stated), which Potency is on record?
The Potency was inconclusive: 31.6 µM [activator, single point].

For `COc1cc(OC)c(NC(=O)N2CC=C(c3c[nH]c4ccccc34)CC2)cc1Cl`, which Potency is on record?
Its Potency is active: 20 µM.

For `O=C(Nc1ccc2c(c1)OCO2)N1CCN(c2cccc(C(F)(F)F)c2)CC1`, which max response, negative = inhibition is on record?
The max response, negative = inhibition was inactive: -4.35%.

How did the max response, negative = inhibition turn out when `O=C(O)c1ccc(C2Nc3ccccc3-c3nnc(SCc4ccc(Cl)cc4)nc3O2)cc1` (configuration not stated) was run?
Its max response, negative = inhibition is inactive: -14.8%.

Which Potency does the source give for `Cc1cccc(C(=O)N2CCc3cc(CNS(=O)(=O)c4cccs4)ccc32)c1` here?
Its Potency is inconclusive: 39.8 µM [inhibitor, single point].

With `O=C(Cn1c(=O)oc2cc(S(=O)(=O)N3CCCCCC3)ccc21)NC1CCCCCCC1` as the molecule, how does the Potency read?
Its Potency is active: 20 µM.

For `CCn1c(CC2C(=O)N(C)c3ccc(Br)cc32)nc2ccccc2c1=O` (configuration not stated), which Potency is on record?
The Potency was inconclusive: 39.8 µM [activator, single point].

`CS(=O)(=O)N1CCC2(CC1)CN(c1ccccn1)C2` was tested. Which max response, negative = inhibition did it give?
The max response, negative = inhibition was inactive: 1.62%.

For `Cc1cc(NC(=O)CSc2nnc(CNc3ccc(F)cc3)n2C2CCCCC2)no1`, which max response, negative = inhibition is on record?
Its max response, negative = inhibition is inactive: -3.44%.

How did the max response, negative = inhibition turn out when `COc1ccc2[nH]c(=O)c(CN(CCO)S(=O)(=O)c3c(C)ccc4nsnc34)cc2c1` was run?
The max response, negative = inhibition was inactive: -4.37%.

How did the max response, negative = inhibition turn out when `COc1ccc(C(=O)NCC(c2ccc3c(c2)OCO3)N2CCOCC2)cc1OC` (configuration not stated) was run?
Its max response, negative = inhibition is inactive: 2.63%.

For `COc1ccc(CNC(=O)c2cn(-c3cccc(OC)c3)c(=O)c3ccccc23)cc1`, which max response, negative = inhibition is on record?
Its max response, negative = inhibition is inactive: -3.47%.

Which Potency does the source give for `COCCN(C(=O)C1CC1)c1nnc(-c2cccc(C)c2)s1` here?
The Potency was inconclusive: 39.8 µM [activator, single point].

Which Potency does the source give for `COc1ccc(-c2cc(C(F)(F)F)n3nc(C(=O)N4CCCCC4)cc3n2)cc1` here?
The Potency was inconclusive: 25.1 µM [activator, partial curve].

For `COc1ccc(-c2cc3ccc(O)c(CN4CCCC4)c3oc2=O)cc1OC`, which max response, negative = inhibition is on record?
Its max response, negative = inhibition is inactive: -21.3%.

`N#Cc1ccccc1-c1ccc2ncnc(NCc3cccs3)c2c1` was tested. Which max response, negative = inhibition did it give?
Its max response, negative = inhibition is inactive: -7.69%.

`CN1C(=O)/C(=C2/C=CC=CN2C)OC1=S` was tested. Which Potency did it give?
The Potency was inconclusive: 25.1 µM [inhibitor, single point].

Which Potency does the source give for `Cc1cccc(NC(=O)c2ccccc2NC(=O)C2CCCCC2)c1C` here?
Its Potency is inconclusive: 39.8 µM [activator, single point].

How did the Potency turn out when `COc1ccc(-c2nnc(SCC(=O)N3CCC(Cc4ccccc4)CC3)o2)cc1OC` was run?
The Potency was inconclusive: 39.8 µM [activator, single point].

How did the Potency turn out when `COc1cc(C)ccc1OCCSc1nc2ccc(NC(C)=O)cc2s1` was run?
Its Potency is inconclusive: 39.8 µM [activator, single point].

For `Cc1ccc(-c2ccc(/C=N/NC(=O)CN3CCCC3)o2)cc1Cl`, which Potency is on record?
The Potency was inconclusive: 31.6 µM [inhibitor, single point].

With `c1ccc(OCCSc2nnc3sc4ccccc4n23)cc1` as the molecule, how does the max response, negative = inhibition read?
Its max response, negative = inhibition is inactive: 5.51%.

`O=C(CSc1nnc(-c2n[nH]c3ccccc23)n1-c1ccccc1)Nc1cccc(Cl)c1` was tested. Which Potency did it give?
Its Potency is inconclusive: 31.6 µM [inhibitor, single point].

For `O=c1c2ccccc2c(/C=N/c2nnc(Cc3ccccc3)s2)c(O)n1-c1ccc(Cl)cn1`, which Potency is on record?
The Potency was inconclusive: 39.8 µM [inhibitor, single point].
